# “And” between values parts separate entries of the source, which are not always exact repeats. Identical values can stand only once. The inconclusive results got no clear call from the source; some entries with a clear call stand among them for comparison. For some of these results: Potencies beside an inconclusive call are fits to weak or partial responses and may not hold up. The source made the active and inactive calls. Unless noted, calls come from the whole dose curve; as a rule, active = well fitted curve in the direction sought with a large enough effect in the repeat runs; inconclusive = weak or mixed curves; inactive = no such curve, though single readings can be large; an effect the other way counts as inactive or inconclusive.
# Legend:
# [1] = target: Glucocorticoid receptor (Homo sapiens) (UniProt P04150); experiment: qHTS assay to identify small molecule antagonists of the glucocorticoid receptor (GR) signaling pathway (AID 720692; active = well fitted inhibition curve with a large enough effect in the signal ratio in the repeat runs, not every such curve was filed as active; inconclusive = weak or mixed curves, or effect the other way; inactive = no such curve, though single readings can be large or run the other way; the % refers to the signal ratio; note: % is set by controls: 0 for no effect and ±100 for the full control effect); conditions: GR-bla HeLa, beta-lactamase FRET ratio, dexamethasone-stimulated, 18 h; activity change, negative = inhibition: at 58.5 µM (top of the series) unless noted
# Chain of UniProt P04150 (P04150 whole entry, looked up): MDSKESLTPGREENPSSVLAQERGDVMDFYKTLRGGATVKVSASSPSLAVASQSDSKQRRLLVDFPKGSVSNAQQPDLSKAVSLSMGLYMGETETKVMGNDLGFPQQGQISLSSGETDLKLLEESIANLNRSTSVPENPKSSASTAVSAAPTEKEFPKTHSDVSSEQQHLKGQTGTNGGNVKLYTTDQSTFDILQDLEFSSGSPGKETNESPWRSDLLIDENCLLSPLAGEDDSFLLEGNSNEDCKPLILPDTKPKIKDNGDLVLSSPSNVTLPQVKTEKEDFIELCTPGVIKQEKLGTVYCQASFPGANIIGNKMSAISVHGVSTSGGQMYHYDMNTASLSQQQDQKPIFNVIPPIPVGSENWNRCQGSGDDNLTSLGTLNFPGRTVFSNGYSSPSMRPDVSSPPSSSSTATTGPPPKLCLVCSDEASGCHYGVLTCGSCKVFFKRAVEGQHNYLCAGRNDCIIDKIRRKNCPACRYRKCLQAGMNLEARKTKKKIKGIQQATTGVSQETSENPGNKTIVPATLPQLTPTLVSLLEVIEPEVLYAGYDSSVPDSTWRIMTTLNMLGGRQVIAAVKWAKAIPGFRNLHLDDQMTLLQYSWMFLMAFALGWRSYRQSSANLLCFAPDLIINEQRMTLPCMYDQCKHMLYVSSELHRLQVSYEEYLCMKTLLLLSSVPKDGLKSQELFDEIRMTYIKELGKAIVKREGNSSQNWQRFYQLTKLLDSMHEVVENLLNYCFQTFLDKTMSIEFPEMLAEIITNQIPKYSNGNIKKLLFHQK
# Procedure, shortened: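 Read-out: beta-lactamase FRET substrate fluorescence, 2 h at room temperature, in HeLa cells stably carrying a GRE-driven bla reporter. Compounds were co-incubated with 5 nM dexamethasone agonist (final) for 18 h at 37 C.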
# [2] = qHTS assay to identify small molecule antagonists of the thyroid receptor (TR) signaling pathway - cell viability counter screen (AID 743064); conditions: GH3.TRE-Luc viability, CellTiter-Fluor, 24 h; activity change, negative = cytotoxic: at 70.3 µM (top of the series) unless noted; note: % is set by controls: 0 for no effect and ±100 for the full control effect; nearly all actives have a fitted effect of over 50% in size
# Procedure, shortened: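 In rat pituitary GH3.TRE-Luc reporter cells co-exposed to compound and 1 nM T3 for 23.5 h, cytotoxicity was assessed with CellTiter-Fluor in the same wells, read by fluorescence.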
# [3] = target: Peroxisome proliferator-activated receptor gamma (Homo sapiens) (UniProt P37231); experiment: qHTS assay to identify small molecule antagonists of the peroxisome proliferator-activated receptor gamma (PPARg) signaling pathway (AID 743191; calls by dose curve; note: % is set by controls: 0 for no effect and ±100 for the full control effect; nearly all actives have a fitted effect of over 30% in size); conditions: HEK293H PPARg-UAS-bla, beta-lactamase ratio, antagonist, 17 h; ratio activity, negative = inhibition: at 62.6 µM (top of the series) unless noted
# Chain of UniProt P37231 (P37231 whole entry, looked up): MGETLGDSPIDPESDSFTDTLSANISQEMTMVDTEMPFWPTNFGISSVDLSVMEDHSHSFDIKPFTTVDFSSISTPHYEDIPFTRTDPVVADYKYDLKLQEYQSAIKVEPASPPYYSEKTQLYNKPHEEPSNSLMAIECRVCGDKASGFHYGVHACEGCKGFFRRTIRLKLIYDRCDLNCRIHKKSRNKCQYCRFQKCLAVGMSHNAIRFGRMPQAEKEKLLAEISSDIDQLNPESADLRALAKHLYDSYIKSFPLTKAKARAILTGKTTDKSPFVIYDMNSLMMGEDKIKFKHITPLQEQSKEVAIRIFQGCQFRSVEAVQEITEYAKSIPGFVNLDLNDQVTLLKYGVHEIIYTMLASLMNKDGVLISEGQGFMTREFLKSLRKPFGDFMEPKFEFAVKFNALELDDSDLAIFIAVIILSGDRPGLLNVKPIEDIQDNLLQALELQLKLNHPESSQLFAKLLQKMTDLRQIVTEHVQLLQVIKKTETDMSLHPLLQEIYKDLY
# Procedure, shortened: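 GeneBLAzer PPARg UAS-bla HEK293H cells, 5 h post-plating, exposed to compounds 17 h at 37C. LiveBLAzer B/G FRET substrate added for 1 h at room temperature; beta-lactamase reporter read by fluorescence intensity.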
# [4] = qHTS assay for small molecule agonists of the antioxidant response element (ARE) signaling pathway (AID 743202; active = well fitted activation curve with a large enough effect in the signal ratio in the repeat runs, not every such curve was filed as active; inconclusive = weak or mixed curves, or effect the other way; inactive = no such curve, though single readings can be large or run the other way; the % refers to the signal ratio; note: potency is the fitted concentration of half-maximal effect); conditions: HepG2 ARE-bla reporter, beta-lactamase FRET, 16 h
# Procedure, shortened: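 HepG2 ARE-bla cells; 16 h treatment at 37 C; FRET-based beta-lactamase fluorescence read after 2 h substrate incubation at room temperature.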
# [5] = qHTS assay to identify small molecule antagonists of the peroxisome proliferator-activated receptor delta (PPARd) signaling pathway - cell viability counter screen (AID 743213); conditions: PPARd-bla HEK293H viability, CellTiter-Glo luminescence, 17 h; viability change, negative = cytotoxic: at 62 µM (top of the series) unless noted; note: nearly all actives have a fitted effect of over 50% in size; note: potency is the fitted concentration of half-maximal effect; for viability change, negative = cytotoxic: % is set by controls: 0 for no effect and ±100 for the full control effect
# Procedure, shortened: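 HEK293H cells with the PPARd UAS-bla reporter, co-treated 17 h at 37 C with compounds and L165041 (300 nM final), were lysed with CellTiter-Glo. Luminescence indicated viable cell content.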
# [6] = target: Peroxisome proliferator-activated receptor delta (Homo sapiens) (UniProt Q03181); experiment: qHTS assay to identify small molecule antagonists of the peroxisome proliferator-activated receptor delta (PPARd) signaling pathway (AID 743215; active = well fitted inhibition curve with a large enough effect in the signal ratio in the repeat runs, not every such curve was filed as active; inconclusive = weak or mixed curves, or effect the other way; inactive = no such curve, though single readings can be large or run the other way; the % refers to the signal ratio;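 note: cells stimulated with agonist L165041 at 300 nM final during compound exposure; % is set by controls: 0 for no effect and ±100 for the full control effect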); conditions: HEK293H PPARd-UAS-bla, beta-lactamase FRET ratio, antagonist, 17 h; ratio activity, negative = inhibition: at 62 µM (top of the series) unless noted
# Chain of UniProt Q03181 (Q03181 whole entry, looked up): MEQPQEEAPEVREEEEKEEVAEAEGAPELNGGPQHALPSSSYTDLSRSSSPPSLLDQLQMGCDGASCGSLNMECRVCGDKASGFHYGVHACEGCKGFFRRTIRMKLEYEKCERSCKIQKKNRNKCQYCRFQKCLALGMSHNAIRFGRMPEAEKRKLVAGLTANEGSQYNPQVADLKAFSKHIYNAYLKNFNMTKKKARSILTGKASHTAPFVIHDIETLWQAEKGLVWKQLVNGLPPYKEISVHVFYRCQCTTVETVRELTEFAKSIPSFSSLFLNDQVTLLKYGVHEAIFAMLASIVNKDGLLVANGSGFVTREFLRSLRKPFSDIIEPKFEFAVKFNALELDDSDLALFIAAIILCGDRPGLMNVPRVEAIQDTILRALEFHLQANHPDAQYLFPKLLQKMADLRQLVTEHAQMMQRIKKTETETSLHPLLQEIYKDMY
# Procedure, shortened: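 HEK293H GeneBLAzer PPARd UAS-bla reporter cells; cpd + L165041 300 nM final, 17 h 37 C; LiveBLAzer B/G FRET substrate 2 h RT; fluorescence intensity read-out. Antagonist mode.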
# [7] = qHTS RealTime-Glo MT Cell Viability Assay in HEK293 cells - 16 hour (AID 1224872); note: top concentration of the series differs between compounds; % is set by controls: 0 for no effect and ±100 for the full control effect; nearly all actives have a fitted effect of over 50% in size
# Procedure, shortened: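 Homogeneous bioluminescent viability format in HEK293 cells (600 cells/well). Following 5 h at 37 C/5% CO2, 23 nL compound was pintooled; the signal was measured repeatedly during 40 h incubation.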
# [8] = target: Cytochrome P450 1A2 (Homo sapiens) (UniProt P05177); experiment: Cytochrome P450 Family 1 Subfamily A Member 2 (CYP1A2) small molecule antagonists: luciferase reporter qHTS assay (AID 1671199); note: nearly all actives have a fitted effect of over 50% in size; note: potency is the fitted concentration of half-maximal effect
# Chain of UniProt P05177 (P05177 whole entry, looked up): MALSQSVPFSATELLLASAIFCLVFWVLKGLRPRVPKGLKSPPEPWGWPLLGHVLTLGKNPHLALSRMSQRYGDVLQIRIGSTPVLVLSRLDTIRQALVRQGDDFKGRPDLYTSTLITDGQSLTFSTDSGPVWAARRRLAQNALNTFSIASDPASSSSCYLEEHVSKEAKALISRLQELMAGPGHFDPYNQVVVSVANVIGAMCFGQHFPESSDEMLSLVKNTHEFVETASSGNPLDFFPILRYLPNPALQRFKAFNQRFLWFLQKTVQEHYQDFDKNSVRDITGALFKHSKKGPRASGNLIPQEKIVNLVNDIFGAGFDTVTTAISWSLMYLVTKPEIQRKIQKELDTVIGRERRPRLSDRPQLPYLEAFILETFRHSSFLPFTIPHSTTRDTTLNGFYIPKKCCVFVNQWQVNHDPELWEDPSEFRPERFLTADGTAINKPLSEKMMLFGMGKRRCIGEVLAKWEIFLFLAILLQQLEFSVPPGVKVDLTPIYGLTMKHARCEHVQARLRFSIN
# Procedure, shortened: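 Luminescence readout (relative luminescence units) after luciferin detection reagent, 20 min RT. Preceded by 1 h room-temperature CYP1A2 reaction with NADPH regeneration solution following 10 min compound preincubation with enzyme and proluciferin substrate. Furafylline positive control.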
# [9] = qHTS assay for small molecule disruptors of the mitochondrial membrane potential (AID 720635); conditions: HepG2 mitochondrial membrane potential, Mito-MPS dye ratio; ratio activity, negative = MMP loss: at 83.2 µM (top of the series) unless noted; note: potency is the fitted concentration of half-maximal effect
# Procedure, shortened: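 HepG2 cells exposed to compound 1 hr at 37C, then Mito-MPS dye 30 min. Ratio read of aggregate (540/590 nm) versus monomer (490/535 nm) fluorescence.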
# [10] = qHTS assay for identifying genotoxic compounds that show differential cytotoxicity against isogenic chicken DT40 cell lines with known DNA damage response pathways - Rev3 mutant cell line (AID 743014); conditions: chicken DT40 Rev3-/- viability, CellTiter-Glo, 40 h; activity, negative = cytotoxicity: at 68.4 µM (top of the series) unless noted; note: nearly all actives have a fitted effect of over 55% in size; note: potency is the fitted concentration of half-maximal effect
# [11] = qHTS assay to identify small molecule antagonists of the estrogen receptor alpha (ER-alpha) signaling pathway using the BG1 cell line - cell viability counter screen (AID 743081); conditions: BG1Luc4E2 viability, CellTiter-Fluor, 22 h; activity change, negative = cytotoxicity: at 70.3 µM (top of the series) unless noted;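 note: compound given together with 17beta-estradiol as the ER stimulus; % is set by controls: 0 for no effect and ±100 for the full control effect; nearly all actives have a fitted effect of over 45% in size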
# [12] = qHTS assay to identify small molecule agonists of the progesterone receptor (PR) signaling pathway - cell viability counter screen (AID 1346799; calls by dose curve; note: nearly all actives have a fitted effect of over 45% in size; note: potency is the fitted concentration of half-maximal effect)
# Procedure, shortened: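 Here, 3,000 PR-UAS-bla HEK293T cells per well were treated with compounds for 16 hr after a 6 hr preincubation at 37C and 5% CO2; cell viability is the CellTiter-Glo luminescence signal.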
# [13] = target: Cytochrome P450 2C9 (Homo sapiens) (UniProt P11712); experiment: Cytochrome P450 Family 2 Subfamily C Member 9 (CYP2C9) small molecule antagonists: luciferase reporter qHTS assay (AID 1671198)
# Chain of UniProt P11712 (P11712 whole entry, looked up): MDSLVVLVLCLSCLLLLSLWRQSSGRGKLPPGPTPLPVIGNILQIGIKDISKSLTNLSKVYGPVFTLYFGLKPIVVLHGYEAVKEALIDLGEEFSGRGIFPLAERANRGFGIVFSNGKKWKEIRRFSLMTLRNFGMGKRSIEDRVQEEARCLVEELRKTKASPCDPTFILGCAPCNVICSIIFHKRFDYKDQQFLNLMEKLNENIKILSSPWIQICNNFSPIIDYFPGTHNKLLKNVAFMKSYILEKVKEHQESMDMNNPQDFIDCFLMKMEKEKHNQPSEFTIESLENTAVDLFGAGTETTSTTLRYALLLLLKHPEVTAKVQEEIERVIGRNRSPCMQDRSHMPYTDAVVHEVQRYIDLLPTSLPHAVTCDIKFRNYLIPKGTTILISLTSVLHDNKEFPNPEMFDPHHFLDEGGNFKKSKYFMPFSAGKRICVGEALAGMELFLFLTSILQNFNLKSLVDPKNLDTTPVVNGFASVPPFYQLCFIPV
# Procedure, shortened: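 P450-Glo proluciferin substrate with CYP2C9 enzyme; 10 min RT preincubation, then NADPH regeneration 1 h at 37C; luciferin detection reagent 20 min RT, luminescence in relative luminescence units.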
# [14] = target: Vitamin D3 receptor (Homo sapiens) (UniProt P11473); experiment: qHTS assay to identify small molecule antagonists of the vitamin D receptor (VDR) signaling pathway (AID 743223; active = well fitted inhibition curve with a large enough effect in the signal ratio in the repeat runs, not every such curve was filed as active; inconclusive = weak or mixed curves, or effect the other way; inactive = no such curve, though single readings can be large or run the other way; the % refers to the signal ratio; note: potency is the fitted concentration of half-maximal effect); conditions: VDR-UAS-bla HEK293T, beta-lactamase FRET ratio, 16 h; activity change, negative = inhibition: at 61 µM (top of the series) unless noted
# Chain of UniProt P11473 (P11473 whole entry, looked up): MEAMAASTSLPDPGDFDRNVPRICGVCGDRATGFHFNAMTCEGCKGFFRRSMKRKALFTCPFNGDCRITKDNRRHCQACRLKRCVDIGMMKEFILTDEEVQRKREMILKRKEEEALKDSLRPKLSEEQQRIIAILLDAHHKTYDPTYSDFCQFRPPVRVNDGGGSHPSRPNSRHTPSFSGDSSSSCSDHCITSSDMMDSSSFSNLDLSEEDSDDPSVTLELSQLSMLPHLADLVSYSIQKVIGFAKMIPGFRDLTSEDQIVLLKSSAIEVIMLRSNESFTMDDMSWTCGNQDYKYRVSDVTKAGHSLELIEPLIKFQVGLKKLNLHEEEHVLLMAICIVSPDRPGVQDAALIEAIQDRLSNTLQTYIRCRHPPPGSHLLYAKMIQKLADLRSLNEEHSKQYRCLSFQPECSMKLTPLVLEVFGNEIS
# Procedure, shortened: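 Reporter line VDR-bla; stimulus 1alpha,25-(OH)2 vitamin D3, 3 nM final; compound co-addition, 16 h 37C/5% CO2; LiveBLAzer B/G substrate 2 h RT; fluorescence intensity.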
# [15] = target: Cytochrome P450 2C19 (Homo sapiens) (UniProt P33261); experiment: Cytochrome P450 Family 2 Subfamily C Member 19 (CYP2C19) small molecule antagonists: luciferase reporter qHTS assay (AID 1671197); note: % is set by controls: 0 for no effect and ±100 for the full control effect; nearly all actives have a fitted effect of over 65% in size
# Chain of UniProt P33261 (P33261 whole entry, looked up): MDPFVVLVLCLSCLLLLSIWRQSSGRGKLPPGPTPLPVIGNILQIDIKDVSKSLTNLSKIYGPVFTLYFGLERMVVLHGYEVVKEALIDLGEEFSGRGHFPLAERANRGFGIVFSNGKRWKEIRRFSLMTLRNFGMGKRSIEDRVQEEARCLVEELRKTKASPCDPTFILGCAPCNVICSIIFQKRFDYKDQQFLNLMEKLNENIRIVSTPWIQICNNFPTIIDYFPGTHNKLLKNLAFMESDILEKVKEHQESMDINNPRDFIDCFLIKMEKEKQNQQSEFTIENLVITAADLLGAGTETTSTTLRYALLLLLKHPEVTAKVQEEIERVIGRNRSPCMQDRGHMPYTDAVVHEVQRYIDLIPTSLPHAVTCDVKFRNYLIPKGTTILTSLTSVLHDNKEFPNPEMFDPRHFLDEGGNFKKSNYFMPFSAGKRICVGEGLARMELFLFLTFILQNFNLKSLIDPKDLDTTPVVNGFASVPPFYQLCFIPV
# Procedure, shortened: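 Relative luminescence units recorded 20 min after the detection reagent stopped a 1 h, 37C CYP2C19 reaction on proluciferin substrate, which was started by NADPH regeneration following 10 min room-temperature compound preincubation; ketoconazole positive control.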
# [16] = target: Estrogen receptor (Homo sapiens) (UniProt P03372); experiment: qHTS assay to identify small molecule agonists of the estrogen receptor alpha (ER-alpha) signaling pathway using the BG1 cell line (AID 743079); conditions: BG1Luc4E2 cells, ERE-luciferase agonist, 22 h; activation: at 70.3 µM (top of the series) unless noted; note: % is set by controls: 0 for no effect and ±100 for the full control effect; nearly all actives have a fitted effect of over 20% in size
# Chain of UniProt P03372 (P03372 whole entry, looked up): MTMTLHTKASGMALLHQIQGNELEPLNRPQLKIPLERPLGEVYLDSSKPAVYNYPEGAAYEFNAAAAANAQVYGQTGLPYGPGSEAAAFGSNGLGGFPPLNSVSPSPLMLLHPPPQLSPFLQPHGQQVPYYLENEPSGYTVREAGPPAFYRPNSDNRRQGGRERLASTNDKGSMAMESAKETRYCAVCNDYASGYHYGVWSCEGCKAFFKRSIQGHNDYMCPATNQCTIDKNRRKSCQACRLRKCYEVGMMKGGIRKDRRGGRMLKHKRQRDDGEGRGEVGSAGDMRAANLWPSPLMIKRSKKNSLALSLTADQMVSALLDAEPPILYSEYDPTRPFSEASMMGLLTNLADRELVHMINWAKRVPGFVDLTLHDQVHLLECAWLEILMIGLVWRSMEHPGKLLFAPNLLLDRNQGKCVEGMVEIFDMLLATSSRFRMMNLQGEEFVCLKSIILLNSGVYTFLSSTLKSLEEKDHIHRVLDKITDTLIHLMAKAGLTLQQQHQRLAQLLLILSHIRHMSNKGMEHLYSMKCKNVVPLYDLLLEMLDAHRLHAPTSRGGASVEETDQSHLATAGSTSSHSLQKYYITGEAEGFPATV
# [17] = target: Progesterone receptor (Homo sapiens) (UniProt P06401); experiment: qHTS assay to identify small molecule antagonists of the progesterone receptor (PR) signaling pathway (AID 1346795; active = well fitted inhibition curve with a large enough effect in the signal ratio in the repeat runs, not every such curve was filed as active; inconclusive = weak or mixed curves; the % refers to the signal ratio; note: % is set by controls: 0 for no effect and ±100 for the full control effect); conditions: PR-UAS-bla HEK293T, beta-lactamase FRET ratio, 16 h; activity change, negative = inhibition: at 92.4 µM (top of the series) unless noted
# Procedure, shortened: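 In HEK293T cells bearing the PR-UAS-bla reporter, compound effects on promegestone-driven (1 nM) beta-lactamase expression are assessed after 16 hr using a fluorescent FRET substrate incubated 2 hr at room temperature.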
# [18] = qHTS assay for identifying genotoxic compounds that show differential cytotoxicity against isogenic chicken DT40 cell lines with known DNA damage response pathways - wild type cell line (AID 743012); conditions: DT40 wild type chicken cells viability, CellTiter-Glo, 40 h; activity change, negative = cytotoxicity: at 68.4 µM (top of the series) unless noted; note: % is set by controls: 0 for no effect and ±100 for the full control effect; nearly all actives have a fitted effect of over 60% in size
# Procedure, shortened: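 CellTiter-Glo luminescence readout of viability in wild type DT40 cells after 40 h compound exposure at 37 C/5% CO2; 300 cells/well; reagent incubated 30 min at room temperature before reading.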
# [19] = activation: at 73.3 µM (top of the series) unless noted
# Tags give direction and shape of the fitted curve or compound fluorescence and quenching.
smiles,measurement,setting,value
CCCCCCCCCCCCCC(=O)OCC,"activity change, negative = inhibition",[1],inconclusive: -0.586%
same,Potency,[2],inactive
same,"ratio activity, negative = inhibition",[3],inconclusive: -0.799%
same,Potency,[4]; [19],"inconclusive: 0.243 µM [rising, single point]"
same,Potency,[5],inactive
same,"ratio activity, negative = inhibition",[6],inconclusive: 22%
same,Potency,[7],inactive
same,Potency,[8],"inconclusive: 56.4 µM [inhibitor, partial curve, poor fit]"
CCn1cc(C(=O)O)c(=O)c2cc3c(cc21)OCO3,Potency,[9],"inactive and inconclusive: 78.1 µM [activator, single point]"
same,Potency,[10],"inconclusive: 23.7 µM [rising, partial curve, poor fit]"
same,Potency,[11],inactive
same,activation,[4]; [19],inconclusive: -5.07% [at 34.3 µM]
same,activation,[4]; at 94.8 µM (top of the series),inactive: 1.41%
same,Potency,[12],"inconclusive: 27.7 µM [rising, partial curve]"
same,Potency,[13],"inconclusive: 32.2 µM [inhibitor, partial curve]"
same,Potency,[8],"inconclusive: 32.2 µM [inhibitor, partial curve] and inconclusive: 6.01 µM [inhibitor, partial curve]"
Nc1ccc(/C=C/c2ccc(N)cc2S(=O)(=O)O)c(S(=O)(=O)O)c1,"activity change, negative = inhibition",[1],inconclusive: 0.556%
same,activation,[4]; [19],inactive: -8.26% [at 0.756 µM]
same,"activity change, negative = inhibition",[14],inactive: 0.787% [at 0.628 µM]
same,"activity change, negative = cytotoxicity",[12],inactive: -4.84% [at 0.349 µM]
same,"activity change, negative = inhibition",[15],inactive: 14.7% [at 0.435 µM]
Cc1ncc(CO)c(CN)c1O,"ratio activity, negative = MMP loss",[9],inconclusive: 0.784%
same,activation,[16],inconclusive: 17.1% [phenotype inactive]
same,Potency,[3],inactive
same,Potency,[4]; [19],"inconclusive: 1.33 µM [rising, partial curve, poor fit]"
same,Potency,[14],"inconclusive: 23.9 µM [falling, partial curve, poor fit]"
same,Potency,[12],inactive
COC(=O)c1ccc(C(=O)O)cc1,Potency,[9],inactive
same,Potency,[1],inactive
same,Potency,[10],inactive
same,Potency,[3],inactive
same,Potency,[6],inactive
same,"activity change, negative = inhibition",[17],inconclusive: 8.89%
same,Potency,[13],"inconclusive: 55.5 µM [inhibitor, partial curve, poor fit]"
O=[N+]([O-])c1cncn1CCN1CCOCC1,Potency,[4]; [19],inactive
same,Potency,[8],inactive
C1CCC2(CCCCO2)OC1,Potency,[1],inactive
same,Potency,[18],inactive
same,Potency,[3],inactive
same,Potency,[5],"inconclusive: 2.19 µM [cytotoxic, single point]"
same,"ratio activity, negative = inhibition",[6],inconclusive: 1.24%
same,"activity change, negative = inhibition",[14],inconclusive: 8.14%
same,Potency,[15],inactive

# From PubChem BioAssay (Tox21)
